Source: PubChem BioAssay AID588855 (National Center for Advancing Translational Sciences (NCATS), 2011)
“And” between values parts separate entries of the source, which are not always exact repeats. Equal values may be shown once. Screen size: about 410,000 compounds; about 5,000 (1.2%) were called active. This list was built around the results that the source calls inconclusive (neither active nor inactive); the mix of calls is not that of the screen. Calls come from the whole dose curve; as a rule, active = well fitted inhibition curve with a large enough effect; inconclusive = small, poorly fitted or top-dose-only effect; inactive = no such curve, though single readings can be large or run the other way. Where the call is inconclusive, the potency comes from a doubtful curve fit.

test: qHTS for Inhibitors of TGF-b; details: HepG2 CAGA-GFP TGF-b/SMAD3 reporter, GFP fluorescence, 18 h, TGF-beta stimulated, 500 pg/mL final; series mostly up to 46.1 µM; note: nearly all actives have a fitted effect of over 65% in size
How it was run: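 Cell-based qHTS in HEPG2 carrying a CAGA-GFP Smad reporter; compounds added before 500 pg/mL final TGF-beta, 18 h incubation at 37 degrees C, GFP fluorescence quantified per cell by imaging cytometry.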
Potency is the fitted concentration of half-maximal effect; tags give direction and shape of the fitted curve.

Row | Structure (SMILES) | Potency
1 | Cc1ccc(Cl)cc1N(C)C(=O)c1cc2ccc3cccnc3c2[nH]1 | active: 11.2 µM
2 | CNC(=O)c1[nH]cnc1C(=O)N[C@@H](Cc1ccccc1)C(=O)OC(C)(C)C | inactive
3 | COc1ccc(S(=O)(=O)N(CC(C)C)C2CCS(=O)(=O)C2)cc1OC (configuration not stated) | inactive
4 | O=C(N/N=C/C=C\c1ccco1)c1cccs1 | inconclusive: 25.1 µM [inhibitor, single point]
5 | CS(=O)(=O)N(CC(=O)NC1CCCC1)c1ccc(Oc2ccccc2)cc1 | inconclusive: 17.8 µM [inhibitor, partial curve, poor fit]
6 | O=C(CBr)c1ccc(Oc2ccc(C(=O)C[n+]3ccccc3Cl)cc2)cc1 | inconclusive: 10 µM [inhibitor, partial curve, poor fit]
7 | CCc1ccc2c(c1)C1(C(=O)N2)N2CCCC2C(C(=O)c2ccc3ccccc3c2)C12C(=O)Nc1ccccc12 (configuration not stated) | active: 15.8 µM
8 | COc1ccc(N(C)C(=O)c2cc3c(s2)-c2ccccc2OC3)c(OC)c1 | inconclusive: 12.6 µM [inhibitor, partial curve, poor fit]
9 | Cc1cc(O)c(CN2CCN(c3ccc(F)cc3)CC2)c2oc(=O)cc(C)c12 | inconclusive: 2.24 µM [inhibitor, partial curve]
10 | Cc1cccc(C(=O)Nc2nnc(S(=O)(=O)N3c4ccccc4CC3C)s2)c1 (configuration not stated) | inconclusive: 17.8 µM [inhibitor, single point]
11 | CC(C)(C)c1nn(-c2ccccc2)c2[nH]c(=O)c(CNc3ccc4c(c3)OCCO4)cc12 | inconclusive: 35.5 µM [inhibitor, single point]
12 | COc1cccc(C(C)NC(=O)Nc2cc(Cl)ccc2OC)c1 (configuration not stated) | inconclusive: 1.12 µM [inhibitor, full curve, poor fit]
13 | CCOC(=O)C1CCN(C(c2cccnc2)c2c(NC(=O)c3ccco3)sc(C)c2C)CC1 (configuration not stated) | active: 7.94 µM
14 | O=C(CSc1nnc(CNc2ccc(F)cc2)n1CC1CCCO1)Nc1ccccc1 (configuration not stated) | inactive
15 | C=CCC1(CC=C)CCCN1C(=O)CC1C(=O)NCCN1Cc1ccccc1OC (configuration not stated) | inconclusive: 5.62 µM [inhibitor, single point]
16 | CCCN(C(=O)Cn1nc(Cc2ccncc2)c2ccccc2c1=O)c1ccccc1C | inconclusive: 0.794 µM [inhibitor, full curve, poor fit]
17 | N=c1oc2cc(O)ccc2cc1C(=O)Nc1ccc(Br)cc1 | inactive
18 | CCOc1ccc(-c2nnc(SCC(=O)NCCc3ccccc3)nc2-c2ccc(OCC)c(OC)c2)cc1OC | inconclusive: 6.31 µM [inhibitor, single point]
19 | COc1cc(NC(=O)CN(c2ccc(C)cc2)S(=O)(=O)c2c(C)noc2C)cc(OC)c1 | inconclusive: 15.8 µM [inhibitor, single point]
20 | COc1ccc(C(N)c2csc(NC(=O)Nc3cccc(C(F)(F)F)c3)n2)cc1 (configuration not stated) | inconclusive: 15.8 µM [inhibitor, single point]
21 | Nc1nnc(SCC(=O)Nc2cccc(Cl)c2)s1 | inactive

Row | Structure (SMILES) | Potency
22 | CC(=O)c1cn(CC(=O)Nc2c(C)cccc2C)c2ccccc12 | inconclusive: 2.24 µM [inhibitor, full curve]
23 | O=C(Nc1ccc(N2CCCCC2)cc1)c1ccc([N+](=O)[O-])o1 | inconclusive: 11.2 µM [inhibitor, partial curve, poor fit]
24 | CCOC(=O)CC1C(=O)NCCN1C(=O)Nc1ccccc1 (configuration not stated) | inactive
25 | COc1cccc(-c2ccc3ncnc(NCc4ccc5c(c4)OCO5)c3c2)c1 | inconclusive: 35.5 µM [inhibitor, single point]
26 | CC(C)(C)NC(=O)CN(C(=O)CNS(=O)(=O)c1ccc(Cl)cc1)c1ccc2c(c1)OCCO2 | inconclusive: 5.62 µM [inhibitor, single point]
27 | O=[N+]([O-])c1cccc(C(=Nc2cccc(Cl)c2)NO)c1 | inconclusive: 1.26 µM [inhibitor, full curve]
28 | COc1cc(C(CCN2CCCC2)c2c(OC)cc(OC)c3c(-c4ccccc4)cc(=O)oc23)cc(OC)c1OC (configuration not stated) | inconclusive: 35.5 µM [inhibitor, single point] and inconclusive: 22.4 µM [inhibitor, single point]
29 | CC(C)(C)S(=O)N1Cc2cc(C(=O)NCc3ccc4c(c3)OCO4)nc(-c3cccc(-c4cc5ccccc5o4)c3)c2[C@@H]1CCO (some centres not stated) | inconclusive: 35.5 µM [inhibitor, single point]
30 | O=C(Cc1ccc(-c2ccccc2)cc1)Nc1ccccn1 | inconclusive: 35.5 µM [inhibitor, single point]
31 | CCc1ccccc1NC(=O)c1ccc2[nH]c(C)c(C)c2c1 | inactive
32 | O=S(=O)(Nc1cc(Br)cc2cccnc12)c1ccccc1 | active: 8.91 µM
33 | CCN(CC(=O)Nc1ccc2c(c1)OCCO2)C(=O)/C=C/c1cccc(C(F)(F)F)c1 | inconclusive: 35.5 µM [inhibitor, single point]
34 | CCc1ccc(CNC(=O)c2sc3ncnc(N(C)C4CCCCC4)c3c2C)cc1 | inconclusive: 25.1 µM [inhibitor, partial curve, poor fit]
35 | COc1ccc(CNC(=O)CCNS(=O)(=O)c2ccc(NC(C)=O)cc2)cc1OC | inactive
36 | Oc1ccccc1/C=N/Nc1cccc2cccnc12 | inconclusive: 12.6 µM [inhibitor, partial curve]
37 | O=C(Nc1ncc([N+](=O)[O-])s1)C1COc2ccccc2O1 (configuration not stated) | inconclusive: 12.6 µM [inhibitor, single point]
38 | O=C(CN1CCc2cc3c(cc2C1)OCCCO3)Nc1cccc(Br)c1 | inactive
39 | C=CCn1c(SCC(=O)c2c(C)[nH]c3ccccc23)nnc1-c1ccncc1 | inactive
40 | COc1cc(OC)cc(-c2cc3ccc(OC)cc3cn2)c1 | inconclusive: 0.282 µM [inhibitor, full curve, poor fit]
41 | COc1ccc(NC(C)=O)cc1S(=O)(=O)N1CCN(Cc2cccs2)CC1 | inactive
42 | O=C(Cn1cnc2c(oc3ccccc32)c1=O)N1CCCC1 | inactive
